The text below walks through data of the supplement of paper PMC10338343.

± gives the standard deviation. Only a part is listed here, and it is no random draw.
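Note: 1 nM active piRISC with 0.1 nM target library at 33 °C single turnover.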

For the test, the system named is MIWI (PIWIL1) piRISC loaded with piRNA #1 (30 nt). Put plainly: pre-steady-state target cleavage rate (min^-1); MIWI and MILI are mouse PIWI proteins and EfPiwi is from a freshwater sponge; tags in brackets are library labels; higher = faster piRNA-guided slicing of the target. Conditions: guide: piRNA #1 5'p-UGAGGUAGUAGGUUGUAUAGUAUCCAGAGG; auxiliary factor: 500 nM mouse GTSF1. In outline: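 The pre-steady-state cleavage rate was calculated from a burst-and-steady-state fit. Data came from Cleave-'n-Seq, in which […] transcribed, DNA-blocked target RNA library was mixed with 1 nM active affinity-purified piRISC carrying one synthetic guide, with or without 500 nM GTSF1 partner protein, in HEPES–potassium acetate buffer at 33 °C for 0–8 or 0–960 min. Uncleaved targets were sequenced and normalised to depth and to weakly complementary targets, three trials were pooled, and k3 was capped at 0.0001 min^-1.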
Turning to GGAGACCUUUCUAUACUACCUACUACCUCA, the “pre-steady-state target cleavage rate” value was determined as 0.0884 ± 0.01.

Take CCUCUGGAUACUAUACUACCUACUACGUCA: the “pre-steady-state target cleavage rate” value turned out to be 1.24 ± 0.074.

As to GGAGACCUAUGAUAUGUUCCUACUACCACA, the “pre-steady-state target cleavage rate” value was under 0.0001.

With CCUCUGGAUACUAUACAAUCUACUACCUCA, the “pre-steady-state target cleavage rate” value worked out at 0.592 ± 0.026.

As to GGAGACCUAUGAUAUCAACCUACUUCCACA, the “pre-steady-state target cleavage rate” value was under 0.0001.

With CCUCAGGAUACUAUACAACCUACAACCUCA, the “pre-steady-state target cleavage rate” value was determined as 1.46 ± 0.09.

With GGACUGGAUACUAUACUACCUACUACCACA, the “pre-steady-state target cleavage rate” value came to 0.945 ± 0.11.

GGAGUGCAUACUAUACUACCUACUACCUCA: the “pre-steady-state target cleavage rate” value worked out at 1.13 ± 0.092.

As to CGUCUGCAUACUAUACAACCUACUACCUCA, the “pre-steady-state target cleavage rate” value turned out to be 1.76 ± 0.099.

Turning to GGAGACCUAUGAUUACAACCUACUUGGUCA, the “pre-steady-state target cleavage rate” value is under 0.0001.

In the case of GCUCUGGAUACUAUACAACGAACUACCUCA, the “pre-steady-state target cleavage rate” value is 0.0208 ± 0.0043.

On to GGAGACCAUACUAUACAAGCUACUAGCUCA, for which the “pre-steady-state target cleavage rate” value came out at 0.372 ± 0.056.

Turning to GGAGAGGAUACUAAUACAACCUACUACCUCA, the “pre-steady-state target cleavage rate” value stood at 1.18 ± 0.06.

Consider GGAGACCUAACUAUACAACCCACUACCUCA, for which the “pre-steady-state target cleavage rate” value came out at 0.253 ± 0.02.

As for GGAGACCUAACUAUACAACCUACUAUCUCA, the “pre-steady-state target cleavage rate” value is 0.393 ± 0.052.

As for GGAGACCAUACUAUAACAACCUACUACCUCA, the “pre-steady-state target cleavage rate” value came out at 0.984 ± 0.085.

As to GGAGAGGAAUGUAUACAACCUACUACCUCA, the “pre-steady-state target cleavage rate” value worked out at 0.197 ± 0.017.

With GGAGACCUAUGUAUACAACCUCACUACCUCA, the “pre-steady-state target cleavage rate” value is 0.00715 ± 0.0022.

With GGAGUGGAAACUAUAGAACCUACUACCUCA, the “pre-steady-state target cleavage rate” value came to 1.31 ± 0.072.

For GCUCUAGAUACUAUACAACCUACUACCUCA, the “pre-steady-state target cleavage rate” value is 2.09 ± 0.12.

As to CCACUGGAUACUAUACAACCUACUAGCUCA, the “pre-steady-state target cleavage rate” value was found to be 1.25 ± 0.085.

For GGAGAGGAUACUAUACAACCUACUACCCUCA, the “pre-steady-state target cleavage rate” value is 0.765 ± 0.072.

With GCUCUGGAUACAAAACAACCUACUACCUCA, the “pre-steady-state target cleavage rate” value worked out at 1.08 ± 0.088.

Regarding GGAGACCAUACUAUACUUGCUACUACCUCA, the “pre-steady-state target cleavage rate” value came to 0.00532 ± 0.0018.

As to GCUCUGGAUUGAAUACAACCUACUACCUCA, the “pre-steady-state target cleavage rate” value was found to be 0.491 ± 0.05.

For the sequence GCUCUGGAUUCUAUACAACCAACUACCUCA, the “pre-steady-state target cleavage rate” value is 0.148 ± 0.014.

Regarding GGAGUGGAUACUAUACAACGUAGUACCUCA, the “pre-steady-state target cleavage rate” value stood at 0.183 ± 0.033.

Regarding CCACUGGAUACAAUACAACCUACUACCUCA, the “pre-steady-state target cleavage rate” value was found to be 1.85 ± 0.11.

For the sequence GGUCUGGAUACUAUCACAACCUACUACCUCA, the “pre-steady-state target cleavage rate” value was 1.58 ± 0.13.

For the sequence CCUCUGCAUAGUAUACAACCUACUACCUCA, the “pre-steady-state target cleavage rate” value was found to be 0.91 ± 0.036.

In the case of GGAGACCUUACUAUACAACCUACUACGUCA, the “pre-steady-state target cleavage rate” value is 0.997 ± 0.068.

As to GGAGACCUAUGUUAUCAACCUACUACCUCA, the “pre-steady-state target cleavage rate” value amounted to 0.00278 ± 0.0016.

As for GGAGACCUAUGAUAUCUACCUACUACGUCA, the “pre-steady-state target cleavage rate” value was under 0.0001.

Take GGAGACCUUACUAUACAACCUUCAACCUCA: the “pre-steady-state target cleavage rate” value is 0.142 ± 0.022.

On to GGUCUGGAUACAAUACAACCUACUACCACA, for which the “pre-steady-state target cleavage rate” value is 1.06 ± 0.093.

GGAGACCUAUGUAACAACCUACUACCUCA: the “pre-steady-state target cleavage rate” value is 0.00914 ± 0.0033.

Consider GGAGACCUAUCUACUACAACCUACUACCUCA, for which the “pre-steady-state target cleavage rate” value came out at 0.0246 ± 0.0058.

On to GGAGACCUAUCUAUACAACCGACUACCUCA, for which the “pre-steady-state target cleavage rate” value was determined as 0.00636 ± 0.0026.

Take CCUCUGGAAACUAUAGAACCUACUACCUCA: the “pre-steady-state target cleavage rate” value is 0.89 ± 0.071.

As to GGAGUGGAUACUAAACAACCUACUACCUGA, the “pre-steady-state target cleavage rate” value turned out to be 0.364 ± 0.063.
